# Where “and” joins values, the source holds several entries; their conditions need not be identical. Identical values can stand only once. Screen size: about 16,000 compounds; about 40 (0.2%) were called active. Inconclusive results (about 1%) are left out. The call rests on the fitted dose curve; in most records, active means well fitted activation curve with a large enough effect; inconclusive means small, poorly fitted or top-dose-only effect, or another doubt; inactive means no such curve, though single readings can be large or run the other way. The list shows a part of the results. Residues, ends and D or L forms follow the SMILES beside them. *: point of attachment. CH2Cl = ClC*
# Target: Rap guanine nucleotide exchange factor 4 (Homo sapiens) (UniProt Q8WZA2)
# Assay: Validation qHTS for agonist of cAMP-regulated guanine nucleotide exchange factor 4 (EPAC2);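 further: exchange makes BODIPY-GDP fluorescence drop when released from Rap1B; series mostly up to about 150 µM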
# Conditions: EPAC2 Rap1B BODIPY-GDP exchange, fluorescence; activation: stronger effect = higher value
# How it was run: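 Signal normalized against 6.5 mM cAMP as agonist control. Mix of EPAC2 (100 nM), RAP1B-BODIPY-GDP (250 nM) and GDP (50 uM) was read kinetically at 480/540 nm, every 5 min over 30 min, after 5 min room-temperature incubation with compound.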
# On the % scale 0 is the no-effect control and ±100 the full control effect.
# UniProt Q8WZA2, sequence (Q8WZA2 whole entry, looked up): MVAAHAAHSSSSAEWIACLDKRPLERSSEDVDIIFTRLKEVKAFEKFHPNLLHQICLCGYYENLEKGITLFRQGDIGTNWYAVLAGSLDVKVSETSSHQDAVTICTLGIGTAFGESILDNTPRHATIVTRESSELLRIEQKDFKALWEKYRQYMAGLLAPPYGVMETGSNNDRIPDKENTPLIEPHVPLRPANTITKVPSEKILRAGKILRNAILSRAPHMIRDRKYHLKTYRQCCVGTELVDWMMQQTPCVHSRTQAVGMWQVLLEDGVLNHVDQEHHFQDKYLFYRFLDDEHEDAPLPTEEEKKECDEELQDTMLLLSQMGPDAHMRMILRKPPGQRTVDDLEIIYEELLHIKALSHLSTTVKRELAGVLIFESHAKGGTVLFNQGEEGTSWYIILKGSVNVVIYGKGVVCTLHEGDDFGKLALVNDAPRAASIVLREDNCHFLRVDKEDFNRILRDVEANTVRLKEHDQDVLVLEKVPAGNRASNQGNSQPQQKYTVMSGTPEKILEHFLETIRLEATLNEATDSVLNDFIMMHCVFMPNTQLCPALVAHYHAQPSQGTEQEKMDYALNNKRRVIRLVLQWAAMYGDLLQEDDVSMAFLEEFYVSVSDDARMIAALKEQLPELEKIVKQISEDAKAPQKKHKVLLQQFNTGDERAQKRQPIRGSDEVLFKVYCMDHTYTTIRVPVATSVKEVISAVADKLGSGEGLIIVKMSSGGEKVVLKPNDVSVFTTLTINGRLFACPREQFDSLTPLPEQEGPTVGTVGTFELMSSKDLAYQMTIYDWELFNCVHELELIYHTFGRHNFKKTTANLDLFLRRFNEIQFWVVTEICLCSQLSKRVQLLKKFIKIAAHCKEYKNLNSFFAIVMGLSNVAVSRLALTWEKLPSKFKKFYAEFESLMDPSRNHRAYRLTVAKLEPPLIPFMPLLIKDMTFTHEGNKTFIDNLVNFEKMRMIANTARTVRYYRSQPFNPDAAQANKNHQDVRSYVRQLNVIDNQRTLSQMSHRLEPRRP
row,SMILES,activation
1,CCCCOC(=O)c1ccccc1C(=O)OCCCC,inactive: -27.8%
2,C/C(=C\C=C/[C@@H](C)C(=O)O)[C@H]1CN[C@H](C(=O)O)[C@@H]1CC(=O)O,inactive: -0.871%
3,CCC1(CCC(C)C)C(=O)NC(=O)NC1=O,inactive: -0.269%
4,Cn1sc(Cl)cc1=O,inactive: 3.99%
5,C[C@H]1O[C@@H](O[C@H]2[C@@H](O)C[C@H](O[C@H]3[C@@H](O)C[C@H](O[C@H]4CC[C@@]5(C)[C@H](CC[C@@H]6[C@@H]5CC[C@]5(C)[C@@H](C7=CC(=O)OC7)CC[C@]65O)C4)O[C@@H]3C)O[C@@H]2C)C[C@H](O)[C@@H]1O,inactive: -6.24%
6,CN1CC[C@@H]2CN3CCc4cccc(c43)[C@@H]2C1,inactive: 17.6%
7,COc1ccc2c3c1O[C@H]1[C@@H](O)C=C[C@H]4[C@@H](C2)NCC[C@@]341,inactive: -8.67% and inactive: -9.71%
8,C[N+]1(C)CCc2cc3c(cc2[C@H]1[C@@H]1OC(=O)c2c1ccc1c2OCO1)OCO3,inactive: 1.77%
9,Cc1nnc2n1-c1ccc(Cl)cc1C(c1ccccc1)=NC2,inactive: -2.57%
10,CCC/C=C/C=C/C(=O)O[C@H]1/C(=C/C(=O)OC)C[C@H]2C[C@H]([C@@H](C)O)OC(=O)C[C@H](O)C[C@@H]3C[C@H](OC(C)=O)C(C)(C)[C@](O)(C[C@@H]4C/C(=C/C(=O)OC)C[C@H](/C=C/C(C)(C)[C@]1(O)O2)O4)O3,inactive: -44.1%
11,O=C(CN1CCCC1)c1ccccc1,inactive: -13%
12,O=C(O)[C@@H]1CSC(c2cccnc2)N1 (stereo partly specified),inactive: -5.34%
13,C=CCc1cc(OC)c2c(c1OC)OCO2,inactive: -22.8%
14,COc1ccc2c(c1O)-c1cccc3c1[C@@H](C2)N(C)CC3,inactive: -26.1%
15,NC(CCP(=O)(O)O)C(=O)O (stereo unspecified),inactive: 3.47% and inactive: -14.9%
16,c1ccc(CN2CCCC3(CCNCC3)C2)cc1,inactive: -19.1%
17,COc1cccc(-c2ccc(O)c(CNC3CN4CCC3CC4)c2)n1 (stereo unspecified),inactive: -1.38%
18,COc1cc(C(O)CN)ccc1O (stereo unspecified),inactive: -29.8%
19,c1cncc([C@@H]2CCCCN2)c1,inactive: -12.5%
20,CN1[C@@H]2CC[C@H]1CC(OC(=O)c1cc(Cl)cc(Cl)c1)C2 (stereo partly specified),inactive: -10.7% and inactive: 0.252%
21,CC(C)(O)[C@@H]1[C@H]2OC(=O)[C@@H]1[C@]1(O)C[C@H]3O[C@]34C(=O)O[C@H]2[C@]14C,inactive: -19.2% and inactive: -14.1%
22,C[C@H](N)C(=O)N[C@@H](C)C(=O)N[C@@H](Cc1ccccc1)C(=O)CCl (H-Ala-Ala-Phe-CH2Cl),inactive: -2.76%
23,C[C@]12CC[C@H](O)C[C@H]1CC[C@@H]1[C@@H]2CC[C@]2(C)[C@@H](c3ccc(=O)oc3)C[C@H]3O[C@]132,inactive: -22.3%
24,COc1cc2c(c(OC)c1OC)-c1ccc(O)c(=O)cc1C(NC(C)=O)CC2 (stereo unspecified),inactive: -21.4%
25,Clc1ccc(Cl)cc1,inactive: -22.1%
26,COC[C@H]1OC(=O)c2coc3c2[C@@]1(C)C1=C(C3=O)C2CCC(=O)[C@@]2(C)C[C@H]1OC(C)=O (stereo partly specified),inactive: 7.17% and inactive: -14.8%

row,SMILES,activation
1,CN(C(=O)Cc1ccc(Cl)c(Cl)c1)[C@H](CN1CCCC1)c1cccc(N=C=S)c1,inactive: 0.96%
2,O=C(O)CF,inactive: -11.3%
3,Cc1ccc2c(c1)[C@]13CCCC[C@@H]1[C@H](C2)N(C)CC3,inactive: -9.05%
4,C=CCN1CCC23c4c5ccc(O)c4OC2/C(=N/N=C2\CCC4(O)C6Cc7ccc(O)c8c7C4(CCN6CC=C)C2O8)CCC3(O)C1C5 (stereo unspecified),inactive: 9.31%
5,C[C@@H]1O[C@H](C[N+](C)(C)C)CS1,inactive: -50.9%
6,CCOP(=O)(OCC)O/C(=C/Cl)c1ccc(Cl)cc1Cl,inactive: 14.2%
7,O=[N+]([O-])O[C@H]1CO[C@H]2[C@@H]1OC[C@H]2O[N+](=O)[O-],inactive: 2.32%
8,C[C@]12Cc3nonc3C[C@@H]1CC[C@@H]1[C@@H]2CC[C@@]2(C)[C@H]1CC[C@]2(C)O,inactive: -2.22%
9,C=C1CC[C@@]2(O)[C@H]3Cc4ccc(O)c5c4[C@@]2(CCN3CC2CC2)[C@H]1O5,inactive: -1.7%
10,Fc1ccc(C(OCCN2CCN(C/C=C/c3ccccc3)CC2)c2ccc(F)cc2)cc1,inactive: 17%
11,CC(C)Oc1cccnc1N(C)C1CCN(Cc2ccccc2)CC1,inactive: -41.7%
12,NCC1(CC(=O)O)CCCCC1,inactive: -0.997% and inactive: -16.2% and inactive: -14.8%
13,COc1cc2ccc(=O)oc2c2ccoc12,inactive: -9.02%
14,C[C@]12CC[C@H]3[C@@H](CCC4=CC(=O)CC[C@@]43C)[C@@H]1CC[C@@H]2OC(=O)CCc1ccccc1,inactive: 8.71%
15,COC1CC(OC2CC[C@@]3(C=O)C4CC[C@]5(C)C(C6=CC(=O)OC6)CC[C@@]5(O)C4CC[C@]3(O)C2)OC(C)C1O (stereo partly specified),inactive: -5.3%
16,CCC(=O)Nc1ccc(Cl)c(Cl)c1,inactive: -4.73%
17,CCC(=O)C(CC(C)N(C)C)(c1ccccc1)c1ccccc1 (stereo unspecified),inactive: -30.5%
18,C=CCc1ccc(OC)cc1,inactive: -9.36%
19,CCOC(=O)[C@]12Cc3ccccc3[C@H]1N(Cc1ccccc1)C(=O)c1ccccc12,inactive: -8.64%
20,COc1ccc(OC)c([C@@H](O)[C@H](C)N)c1,inactive: -14.4%
21,Cc1ccccc1-c1cncnc1NCCc1cnc[nH]1,inactive: -5.07%
22,O=C(Nc1ccccc1)N1CC[C@@]2(CCCNC2)C1,inactive: 1.31%
23,C=CCN1CC[C@]23c4c5ccc(O)c4O[C@@H]2/C(=N/N=C2\CC[C@@]4(O)C6Cc7ccc(O)c8c7[C@@]4(CCN6CC=C)[C@@H]2O8)CC[C@@]3(O)C1C5,inactive: -12%
24,CC(O)(CS(=O)(=O)c1ccc(F)cc1)C(=O)Nc1ccc(C#N)c(C(F)(F)F)c1 (stereo unspecified),inactive: -37.4%
25,CC1O[C@@H](O[C@@H]2C(O)C[C@H](O[C@@H]3C(O)C[C@@H](OC4CC[C@@]5(C)C6CC[C@]7(C)C(C8=CC(=O)OC8)CC[C@@]7(O)C6CC[C@@H]5C4)OC3C)OC2C)CC(O)[C@H]1O (stereo partly specified),inactive: -1.3%
26,CCCn1c(=O)c2[nH]c(C3CCCC3)nc2n(CCCOC(=O)c2ccc(S(=O)(=O)F)cc2)c1=O,inactive: -27.3%

row,SMILES,activation
1,CN1C2CCC1CC(OC(c1ccccc1)c1ccc(Cl)cc1)C2 (stereo unspecified),inactive: -13.7%
2,CC1CC[C@@]2(OC1)O[C@@H]1[C@@H](O)[C@H]3C4CC[C@H]5C[C@@H](O[C@@H]6O[C@H](CO)[C@H](O[C@@H]7O[C@H](CO)[C@@H](O)[C@H](O[C@@H]8OC[C@@H](O)[C@H](O)[C@H]8O)[C@H]7O[C@@H]7O[C@H](CO)[C@@H](O)[C@H](O[C@@H]8O[C@H](CO)[C@@H](O)[C@H](O)[C@H]8O)[C@H]7O)[C@H](O)[C@H]6O)[C@H](O)C[C@]5(C)C4CC[C@]3(C)[C@H]1[C@@H]2C (stereo partly specified),inactive: -12.9%
3,CNC(=O)Oc1cccc2ccccc12,inactive: -27.6%
4,CCOC(=O)c1cncn1[C@H](C)c1ccccc1,inactive: -1.12%
5,CCOC(=O)c1cncn1C(C)c1ccccc1 (stereo unspecified),inactive: -25.9%
6,Cc1noc(C)c1C(=O)N1CCC2(CCCN(CC(C)C)C2)CC1,inactive: -0.998%
7,N[C@@H](CCP(=O)(O)O)C(=O)O,inactive: -17.4%
8,CCOC(=O)/C=C(C)/C=C/C[C@@H](C)CCCC(C)C,inactive: -19.9%
9,C#CCN1CC(=O)N(COC(=O)C2C(C=C(C)C)C2(C)C)C1=O (stereo unspecified),inactive: -43.6%
10,Cc1ncsc1CCCl,inactive: 2.05% and inactive: -4.55% and inactive: -37.2%
11,CC(=O)OC1CC[C@]2(C)C(CCC3C2CC[C@]2(C)C(C4=CC(=O)OC4)C(OC(C)=O)CC32O)C1 (stereo partly specified),inactive: -43.3%
12,CCCCCCC(C)(C)c1ccc([C@@H]2C[C@H](O)CC[C@H]2CCCO)c(O)c1,inactive: -71.9%
13,CC(C)CN1CCC2(CC1)CCN(S(C)(=O)=O)CC2,inactive: -2.25%
14,CCN1C[C@]2(C)CC[C@H](OC)[C@@]34[C@H]1C1(OCO[C@@]15C[C@H](OC)C1C[C@]3(O)C5[C@H]1OC)[C@@H](O)[C@H]24,inactive: -13.5%
15,C[C@@]12CCC(Cl)C[C@H]1CCC1C2CC[C@]2(C)C(=O)CCC12 (stereo partly specified),inactive: -2.76%
16,COC1(CS(=O)c2ccccc2)CCN(CCc2c[nH]c3ccc(F)cc23)CC1 (stereo unspecified),inactive: -21.9%
17,O.O.O.O=C([O-])C(O)C(O)C(=O)[O-].O=C([O-])C(O)C(O)C(=O)[O-].[K+].[K+].[Sb].[Sb] (stereo unspecified),inactive: 1.66%
18,C=CCN1CC[C@@]23c4c5ccc(O)c4O[C@H]2/C(=N\N=C2/CC[C@@]4(O)[C@H]6Cc7ccc(O)c8c7[C@@]4(CCN6CC=C)[C@@H]2O8)CC[C@]3(O)[C@@H]1C5,inactive: -15.7%
19,CC1Cc2ccccc2CN1 (stereo unspecified),inactive: -10.7%
20,O=C(c1csnn1)N1CCC2(CC1)CN(Cc1ccncc1)C2,inactive: -8.62%
21,CCCCCCCCCCCCCCCCOC[C@@H](O)COP(=O)([O-])OCC[N+](C)(C)C,inactive: -2.53%
22,C[C@]1(C(=O)O)CCC[C@]2(C)c3cc(O)ccc3CC[C@@H]12,inactive: -3.77%
23,NC[C@H](CP(=O)(O)O)c1ccc(Cl)cc1,inactive: 0.516%
24,CCCCCCCCCOc1ccc2[nH]cc(CCN)c2c1,inactive: -47.4% and inactive: -10.5%

# — PubChem BioAssay AID1645887 (National Center for Advancing Translational Sciences (NCATS), 2021)
